± gives the uncertainty stated by the source. In all, about 9,900 compounds were measured (“viability index relative to DMSO control”: median about 1, lowest 2% from about 0.85 on). The list shows a part of the results.

In this test the test system is Plasmodium falciparum NF54 stage V gametocytes. The test can be described thus: viability index relative to DMSO control (fraction); higher = less gametocyte killing. The note with it: 2.5 µM, library set: Broad Institute DOS, incubation time: 72 h. The gist of the method:
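P. falciparum NF54 stage V gametocytes (serum-free medium, 0.75% gametocytemia, 1.25% hematocrit) were exposed to compound at 2.5 µM for 72 hr at 37°C under low oxygen, then stained with MitoTracker Red CMXRos and saponin for one to two hours. Red particles of 20–70 µm2 in one field per well were counted, and the viability index is that count scaled to the plate mean of solvent-only wells.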
As for `COc1ccc(S(=O)(=O)Nc2cccc3c2O[C@H](CN(C)CC2CCCCC2)[C@@H](C)CN([C@@H](C)CO)C3=O)cc1`, the viability index was determined as 0.951 ± 0.18. In turn, `O=C(c1ccccc1F)N1C[C@@H]2[C@H](c3ccccc31)[C@@H](CO)N2Cc1ccc2c(c1)OCO2` returned a viability index of 1.06 ± 0.18.

In the case of `COc1ccc(S(=O)(=O)N(C)C[C@@H]2Oc3ccc(N(C)C)cc3CC(=O)N([C@@H](C)CO)C[C@@H]2C)cc1`, the viability index was 1.02 ± 0.029.

As to `N#C[C@@H]1[C@H](c2ccccc2-c2cccc(F)c2)[C@H](CO)N1C(=O)CN1CCOCC1`, the viability index was found to be 1.15 ± 0.068.

With `COc1cccc(-c2ccccc2[C@@H]2[C@@H](C#N)N(C(=O)Cc3ccccc3)[C@H]2CO)c1`, the viability index came to 1.12 ± 0.079. In the case of `O=C(C[C@H]1CC[C@H]2[C@@H](COC[C@H](O)CN2C(=O)Nc2ccc(Cl)cc2)O1)NCC1CCCCC1` it was 1.06 ± 0.038; in that of `O=C(Nc1cccc(Cl)c1)N1[C@@H]2CNC[C@H]1[C@@H]2c1ccc(/C=C/c2ccccc2)cc1`, 1.1 ± 0.049; in that of `COc1ccc2c3c([C@H](CO)N(C[C@]33CCN(C)CC3)C(=O)Cc3ccccn3)n(C)c2c1`, 1.07 ± 0.054. The result for `CO[C@@H]1CN(C)C(=O)c2ccc(NC(=O)Nc3c(C)noc3C)cc2OC[C@@H](C)N(CCC(F)(F)F)C[C@H]1C` reads 1.09 ± 0.058; that for `C[C@@H]1CN([C@@H](C)CO)C(=O)c2cc(NC(=O)CCCN(C)C)ccc2O[C@H]1CN(C)Cc1ccc(Cl)c(Cl)c1`, 0.953 ± 0.062; that for `CN1c2ccc(C#Cc3cccnc3)cc2[C@H]2[C@H](CCN2C(=O)CN2CCOCC2)[C@@H]1CO`, 1.07 ± 0.062. The result for `CC(=O)N1[C@H](CO)[C@H](c2ccccc2)[C@H]1CN(CC1CCC1)C(=O)CN(C)C` reads 0.994 ± 0.02.

Turning to `CCc1cnc(N2[C@H](C#N)[C@H](c3ccc(C#Cc4ccccc4F)cc3)[C@H]2CO)s1`, the viability index worked out at 0.8872 ± 0.0045. On to `CC(C)C[C@H]1COCc2cn(nn2)CC[C@H](C)C(=O)N1`, for which the viability index was determined as 1.082 ± 0.0066. In the case of `Fc1ccccc1-c1ccc([C@H]2[C@H]3CNC[C@@H]2N3CC2CC2)cc1` it was 1.06 ± 0.075; in that of `O=C(NCCCN1CCOCC1)[C@H]1[C@H](CO)[C@H]2Cn3c(ccc(C4=CCCCC4)c3=O)[C@@H]1N2`, 1.02 ± 0.0041; in that of `CCCC#Cc1ccc2c(c1)O[C@@H](CN(C)Cc1ccccn1)[C@@H](C)CN([C@H](C)CO)S2(=O)=O`, 0.958 ± 0.061. The result for `CN(C)Cc1cn(CC[C@H]2CC[C@H](NC(=O)Cc3cccnc3)[C@H](CO)O2)nn1` reads 0.925 ± 0.032; that for `CN(C)C(=O)c1ccc(-c2ccc([C@@H]3[C@@H]4CN(Cc5cncnc5)C[C@H]3N4)cc2)cc1`, 1.17 ± 0.019; that for `COc1ccc2c3c([nH]c2c1)[C@@H](CO)N(Cc1nccs1)C[C@]31CCN(Cc2cccnc2)CC1`, 0.98 ± 0.062. `CCN(C[C@@H]1[C@@H](c2ccccc2)[C@@H](CO)N1C(=O)COC)S(C)(=O)=O` displayed a viability index of 1 ± 0.025. `CCC(=O)N1CC2(C1)[C@H](c1ccc(-c3ccc(F)cc3)cc1)[C@H](CO)N2C(C)=O` yielded a viability index of 0.9574 ± 0.0023. Consider `CC(C)NC(=O)N(C)C[C@H]1Oc2ccc(NC(=O)Cc3ccccc3)cc2CC(=O)N([C@@H](C)CO)C[C@H]1C`, for which the viability index was 0.99 ± 0.024. For the molecule `CCS(=O)(=O)N1C[C@@]2(C1)CN(Cc1ccc3OCOc3c1)[C@H](CO)c1c2c2ccc(OC)cc2n1C`, the viability index turned out to be 1.03 ± 0.032. In the case of `C/C=C/c1ccc([C@@H]2[C@@H](CO)N(C(C)=O)C23CN(C(=O)NC2CCCCC2)C3)cc1` it was 1.11 ± 0.032. The result for `COc1ccccc1CNC(=O)C[C@H]1CC[C@H]2[C@@H](COC[C@@H](O)CN2Cc2ccc3c(c2)OCO3)O1` reads 1.12 ± 0.037; that for `COc1cccc(S(=O)(=O)N(C)C[C@@H]2Oc3cc(Br)ccc3S(=O)(=O)N([C@@H](C)CO)C[C@@H]2C)c1`, 1.07 ± 0.041. In the case of `O=C(C[C@@H]1CC[C@H]2[C@@H](COC[C@@H](O)CN2S(=O)(=O)c2cccc(Cl)c2)O1)N1CCOCC1` it was 1.03 ± 0.084; in that of `COc1ccc(S(=O)(=O)N2C[C@@H](O)COC[C@@H]3O[C@H](CC(=O)N[C@H]4CCN(Cc5ccccc5)C4)CC[C@H]32)cc1`, 1.111 ± 0.0036; in that of `COc1ccc(S(=O)(=O)Nc2ccc3c(c2)C(=O)N([C@H](C)CO)C[C@H](C)[C@H](CN(C)Cc2ccc(C(F)(F)F)cc2)OCCCC[C@@H](C)O3)cc1`, 1.14 ± 0.026. Regarding `N#C[C@H]1[C@@H](c2ccccc2)[C@@H](CO)N1C(=O)c1ccccc1F`, the viability index stood at 1.042 ± 0.002. The result for `CCCNC(=O)N(C)C[C@@H]1Oc2ncc(C#CC3CCCCC3)cc2C(=O)N([C@@H](C)CO)C[C@H]1C` reads 1.11 ± 0.039. The result for `C/C=C/c1ccc([C@H]2[C@@H](CO)N(c3nc(C)c(C)s3)[C@@H]2CNCC(C)C)cc1` reads 0.92 ± 0.057; that for `COc1ccc(-c2ccccc2[C@@H]2[C@@H](C#N)N(C(=O)c3cccnc3)[C@@H]2CO)cc1`, 1.12 ± 0.063. In turn, `CO[C@H]1CN(C)C(=O)c2ccc(NS(=O)(=O)c3ccc(C)cc3)cc2OC[C@H](C)N(C)C[C@@H]1C` had a viability index of 1.13 ± 0.072. Take `COc1ccccc1-c1cn(CC[C@@H]2CC[C@H](NC(=O)C3CCCCC3)[C@H](CO)O2)nn1`: the viability index was determined as 1.03 ± 0.038. In the case of `C[C@H]1CN([C@@H](C)CO)C(=O)Cc2cc(NC(=O)C3CCCCC3)ccc2O[C@H]1CN(C)Cc1ccc(Cl)c(Cl)c1` it was 1.02 ± 0.031; in that of `CN1C(=O)c2cc(NS(=O)(=O)c3cccc(F)c3)ccc2OC[C@@H]2O[C@H](CC(=O)NCCN3CCCCC3)CC[C@@H]21`, 0.958 ± 0.062. As for `Cc1ccccc1S(=O)(=O)N1C[C@@H](O)COC[C@@H]2O[C@@H](CC(=O)N3CCCCC3)CC[C@H]21`, the viability index stood at 1.09 ± 0.086.

Take `COc1ccccc1S(=O)(=O)N(C)C[C@@H]1OCc2cn(nn2)CCCC(=O)N([C@@H](C)CO)C[C@@H]1C`: the viability index turned out to be 1.05 ± 0.021.

`C[C@@H]1CCCCO[C@@H](CN(C)CC2CCCCC2)[C@H](C)CN([C@@H](C)CO)C(=O)c2cc(NS(C)(=O)=O)ccc2O1` showed a viability index of 1.08 ± 0.061. The result for `COc1cccc(C#Cc2ccc([C@@H]3[C@H]4CN(C(=O)Cc5cccnc5)CC(=O)N4[C@H]3CO)cc2)c1` reads 1.06 ± 0.034; that for `C/C=C/c1ccc([C@H]2[C@@H](CO)N(CC3CCOCC3)C23CN(C(=O)COC)C3)cc1`, 1.04 ± 0.055; that for `N#C[C@H]1[C@@H](c2ccccc2)[C@@H](CO)N1C(=O)c1cc(Cl)cc(Cl)c1`, 1.08 ± 0.056.

Regarding `COc1cccc(S(=O)(=O)N2CC[C@H]3[C@@H](CO)N(C)c4ccc(-c5ccccc5OC)cc4[C@H]32)c1`, the viability index came out at 1.09 ± 0.038. For `C[C@@H]1CN([C@H](C)CO)C(=O)c2cc(N(C)C)ccc2O[C@@H](C)CCCCO[C@@H]1CN(C)S(=O)(=O)c1cn(C)cn1`, the viability index came to 0.98 ± 0.065.

In turn, `C[C@@H]1CN([C@@H](C)CO)C(=O)CCCn2nncc2CO[C@H]1CN(C)Cc1ccc2cccnc2c1` came in with a viability index of 0.991 ± 0.017. In the case of `Cc1cc(C(=O)Nc2ccc3c(c2)C(=O)N(C)[C@H]2CC[C@@H](CC(=O)O)O[C@H]2CO3)no1` it was 0.945 ± 0.024.

On to `CCc1cnc(N2[C@H](CO)[C@@H](c3ccc(C#Cc4ccccc4F)cc3)[C@@H]2C#N)s1`, for which the viability index stood at 1.11 ± 0.019.

`CN(C)C(=O)C[C@H]1CC[C@@H]2[C@@H](COc3ccc(NC(=O)C4CCCCC4)cc3C(=O)N2C)O1` yielded a viability index of 0.976 ± 0.13. In the case of `CO[C@H]1CN(C)C(=O)c2ccc(NS(C)(=O)=O)cc2OC[C@H](C)N(CC2CC2)C[C@H]1C`, the viability index is 1.043 ± 0.003. The result for `CNC[C@H]1Oc2c(N)cccc2C(=O)N([C@H](C)CO)C[C@H]1C` reads 1.04 ± 0.08; that for `N#C[C@H]1[C@@H](c2ccccc2-c2ccc(F)cc2)[C@H](CO)N1C(=O)Cc1cccnc1`, 1.11 ± 0.048.

On to `N#Cc1cccc(-c2ccc3c(c2)[C@@H]2[C@@H](CCN2S(=O)(=O)c2ccc(F)cc2)[C@H](CO)N3)c1`, for which the viability index stood at 0.844 ± 0.062. The molecule `CCC(=O)N1C[C@]2(CCN(CC2)C(=O)Cc2ccccc2)c2c([C@@H]1CO)n(C)c1cc(OC)ccc21` came in with a viability index of 0.935 ± 0.13. In the case of `C[C@@H](NC(=O)[C@@H]1[C@@H](CO)[C@@H]2Cn3c(ccc(-c4ccccc4F)c3=O)[C@H]1N2)c1ccccc1` it was 1.05 ± 0.019; in that of `O=C(C[C@H]1CC[C@H]2[C@@H](COC[C@@H](O)CN2CC2CCOCC2)O1)NCc1ccc(Cl)cc1`, 1.08 ± 0.016. The result for `COCC(=O)N1C[C@H](C)[C@H](OC)CN(C)C(=O)c2ccc(NC(=O)Nc3cccc(F)c3)cc2OC[C@@H]1C` reads 1 ± 0.03.

For the molecule `O=C(c1ccc2c(c1)OCO2)N1CC[C@@H]2[C@@H](CO)Nc3ccc(C#Cc4ccccc4)cc3[C@@H]21`, the viability index is 1.024 ± 0.0029. Molecule `CO[C@H]1CN(C)C(=O)c2cc(NC(=O)c3ccccc3F)ccc2OC[C@@H](C)N(CC2CCOCC2)C[C@H]1C` had a viability index of 1.04 ± 0.011.

Take `CO[C@@H]1CN(C)C(=O)c2ccc(NC(=O)c3ccno3)cc2OC[C@@H](C)N(S(C)(=O)=O)C[C@H]1C`: the viability index turned out to be 1.06 ± 0.08. In the case of `C[C@@H]1CN([C@H](C)CO)S(=O)(=O)c2ccc(C#CC(C)(C)O)cc2O[C@H]1CN(C)Cc1ccc(F)cc1` it was 0.87 ± 0.065. In turn, `C[C@@H]1CCCCO[C@@H](CN(C)C(=O)CCC(F)(F)F)[C@H](C)CN([C@@H](C)CO)C(=O)c2cc(NC(=O)C3CCCCC3)ccc2O1` showed a viability index of 1.13 ± 0.072. In the case of `COc1ccc(C#Cc2ccc([C@@H]3[C@@H](CO)N4C(=O)CN(C(=O)NC(C)C)C[C@H]34)cc2)cc1` it was 0.985 ± 0.038. The result for `Cc1noc(C)c1C(=O)N(C)C[C@@H]1OCc2ccccc2-c2ccccc2C(=O)N([C@H](C)CO)C[C@H]1C` reads 0.952 ± 0.066; that for `COCC(=O)N1C[C@@]2(C1)CN([C@@H](CO)c1[nH]c3cc(OC)ccc3c21)C(=O)Nc1ccccc1F`, 1.03 ± 0.078; that for `COc1ccc2c3c([C@@H](CO)N(C)C[C@]33CCN(CC3)C(=O)CN3CCOCC3)n(C)c2c1`, 0.9699 ± 0.0061.

`COc1ccc2c3c([nH]c2c1)[C@@H](CO)N(CC1CC1)C[C@]31CCN(CC1)C(=O)Nc1cccc(F)c1` displayed a viability index of 1.06 ± 0.017.

`Cc1ccc(-c2ccc([C@H]3[C@H]4CN(C(=O)NC(C)C)CC(=O)N4[C@H]3CO)cc2)cc1` displayed a viability index of 1.076 ± 0.006. On to `COc1ccc(C[C@@H]2CCn3cc(nn3)COC[C@H](c3ccccc3)NC2=O)cc1`, for which the viability index came out at 1.03 ± 0.042. Molecule `CN(C[C@H]1[C@H](c2ccccc2)[C@@H](CO)N1Cc1ccccn1)S(C)(=O)=O` yielded a viability index of 1.04 ± 0.084. In turn, `O=C(C[C@H]1C[C@@H]2c3cc(NC(=O)c4cccnc4)ccc3O[C@@H]2[C@@H](CO)O1)NCc1cc(F)ccc1F` gave a viability index of 1.02 ± 0.092.

(Values after the supplement of paper PMC4723716.)
